Results from PMC4336329 (PLoS ONE, 2015).
The whole screen tested about 310,000 compounds, of which about 14,000 (4.5%) showed an effect of 50% or more. The effect is printed as a negative number. The list shows a part of the results.

target: human ether-à-go-go-related gene (hERG) potassium channel (human, UniProt Q12809); test: primary screen, population patch clamp on CHO cells stably expressing hERG
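Further: peak tail current of the secondary pulse compared with the same well before compound.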

Chain of human ether-à-go-go-related gene (hERG) potassium channel (Q12809 whole entry, looked up): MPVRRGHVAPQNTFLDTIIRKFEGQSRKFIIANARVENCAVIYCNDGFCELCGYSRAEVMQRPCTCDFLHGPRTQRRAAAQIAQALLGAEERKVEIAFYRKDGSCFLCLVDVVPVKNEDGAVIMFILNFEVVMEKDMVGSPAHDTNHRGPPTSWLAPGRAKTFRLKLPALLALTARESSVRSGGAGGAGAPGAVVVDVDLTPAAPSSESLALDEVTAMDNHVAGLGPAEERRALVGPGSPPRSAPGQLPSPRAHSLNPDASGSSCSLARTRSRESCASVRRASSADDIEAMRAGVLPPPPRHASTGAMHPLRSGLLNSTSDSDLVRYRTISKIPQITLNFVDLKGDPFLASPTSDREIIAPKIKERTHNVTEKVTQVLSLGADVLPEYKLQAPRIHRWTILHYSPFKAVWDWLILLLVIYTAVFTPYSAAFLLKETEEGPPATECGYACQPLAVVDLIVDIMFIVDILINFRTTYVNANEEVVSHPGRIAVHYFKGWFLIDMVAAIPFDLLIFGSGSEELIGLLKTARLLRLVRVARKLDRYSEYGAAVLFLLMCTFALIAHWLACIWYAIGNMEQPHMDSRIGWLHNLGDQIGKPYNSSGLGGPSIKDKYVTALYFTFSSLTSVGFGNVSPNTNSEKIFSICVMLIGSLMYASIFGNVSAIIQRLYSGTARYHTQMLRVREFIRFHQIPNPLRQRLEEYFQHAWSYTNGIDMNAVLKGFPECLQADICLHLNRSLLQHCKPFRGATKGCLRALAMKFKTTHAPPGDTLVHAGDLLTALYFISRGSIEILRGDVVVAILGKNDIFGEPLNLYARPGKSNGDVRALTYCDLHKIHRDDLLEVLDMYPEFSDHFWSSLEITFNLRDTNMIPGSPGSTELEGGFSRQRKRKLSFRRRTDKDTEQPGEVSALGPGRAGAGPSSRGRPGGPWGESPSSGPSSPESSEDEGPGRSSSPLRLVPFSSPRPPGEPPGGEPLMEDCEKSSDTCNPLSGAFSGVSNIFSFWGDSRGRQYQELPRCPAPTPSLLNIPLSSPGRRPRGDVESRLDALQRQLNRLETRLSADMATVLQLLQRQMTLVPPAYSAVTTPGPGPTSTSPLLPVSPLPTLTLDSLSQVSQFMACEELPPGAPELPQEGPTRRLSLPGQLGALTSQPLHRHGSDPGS

SMILES	hERG current change (%, negative = inhibition) at 10uM [%]
Cc1cc(C(=O)Cn2nc(C(=O)O)c3ccccc3c2=O)c(C)n1CC(F)(F)F	13.7
COc1cc(OC)cc(C(=O)NNC(=O)c2cc3ccccc3cc2O)c1	11.6
Cc1cc(S(=O)(=O)N2CCN(C(=O)c3ccco3)CC2)ccc1F	-1.73
CSCCNC(=O)c1ccc(OC2CCN(CCc3ccccc3)CC2)cc1	-64.6
Cc1ccc(C)c(S(=O)(=O)N2CCCC2CNC(=O)C(=O)NCC2CCCO2)c1 (centres unmarked)	-15.5
COc1ccc(C(=O)/C=C/Nc2ccccn2)c(OC)c1	13.2
CCn1c(=S)sc2c(=O)n(CC(=O)Nc3cccc(Br)c3)c(C)nc21	10.2
Cc1ccccc1Nc1nc(N)nc(CN2CCN(c3ccccn3)CC2)n1	-66.6
Cc1cc(C(=O)N2CCN(c3ncccc3C#N)CC2)no1	-0.539
Cc1ccc2c(=O)[nH]c(Nc3nc(C)cc(-c4ccccc4)n3)nc2c1	5.59
CCOC(=O)C(=O)N1CCN(c2nc(-c3ccc(Cl)cc3)cs2)CC1	-7.23
CS(=O)(=O)N(CC(=O)NCCSc1ccccn1)c1cccc2ccccc12	-9.92
CCOC(=O)c1nn(-c2ccc(Cl)cc2)c(=O)c(C#N)c1C	5.94
O=c1c2cc(Br)ccc2[nH]c(=S)n1Cc1ccccn1	12.7
CN(C)C(=O)[C@@H]1C[C@H]1[C@@H](NC(=O)OCc1ccccc1)c1ccccc1	-64.2
CN(C)S(=O)(=O)c1cccc(NC(=O)CN2C(=O)C3C4C=CC(C4)C3C2=O)c1 (centres unmarked)	12.8
O=C(CCC(=O)N1CCOCC1)NCc1cccc(C(F)(F)F)c1	-0.171
CC1CN(Cc2c(O)ccc3c(=O)c(-c4ccccc4)coc23)CC(C)O1.Cl (centres unmarked)	-6.52
COc1cnn(-c2ccc(C)cc2)c(=O)c1SCc1ccccc1	-20.9
CCOC(=O)c1c(-c2ccc(OC)cc2)csc1/N=C/C1C(=O)CCCC1=O	2.18
Cc1cc(C)cc(NC(=O)Cn2c(-c3ccccc3Cl)nc3ccccc32)c1	5.5
COc1cccc2[nH]c3c(N4CCc5ccccc5C4)ncnc3c12	4.69

SMILES	hERG current change (%, negative = inhibition) at 10uM [%]
COc1ccccc1C1NC(=O)NC(C)=C1C(=O)OC1CCC(C)CC1 (centres unmarked)	17
CCOc1ccccc1NC(=O)/C(C#N)=C/c1c(C)nn(-c2ccccc2)c1Cl	-3.07
CN(C)c1ccc(C2N(c3ccc(F)cc3)C(=O)C3CCCN32)cc1 (centres unmarked)	8.36
O=C(Nc1ccc(Cl)c(Cl)c1)c1ccc(Cn2c(=O)[nH]c3ccsc3c2=O)cc1	19.4
Cc1ccccc1CSc1nnc(-c2ccncc2)o1	-28.6
COc1ccccc1N(CN1CCCC1=O)C(=O)c1ccccc1F	-8.74
CN1/C(=C\C(=O)COC(=O)c2ccc([N+](=O)[O-])o2)C(C)(C)c2ccccc21	13.8
O=[N+]([O-])c1ccc(NCCCN2CCOCC2)nc1	-29.8
CCCCc1ccc(NC(=S)N2CCN(C(=O)OCC)CC2)cc1	0.129
CC(=O)N(C)C1=C(N2CCOCC2)C(=O)c2ccccc2C1=O	-6.15
CCn1nc(C(=O)OCC(=O)NCCN2C(=O)CSC2=O)c2ccccc2c1=O	-0.515
CC(CCc1ccccc1)NC(=O)C(=O)N1CCOCC1 (centres unmarked)	19.8
CCCC(=O)Nc1nc2nc(-c3ccccc3)cc(-c3ccccc3)n2n1	8.16
CN(CCCC(=O)O)S(=O)(=O)c1ccc2c(c1)C(=O)c1cc(S(=O)(=O)N(C)CCCC(=O)O)ccc1-2	19.8
COc1ccccc1CC(=O)Nc1cccc2ccccc12	13.1
COc1cccc2cc(C(=O)NCc3ccc(C)cc3)c(=O)oc12	26.3
O=C(CNC(=O)N1CC(=O)Nc2ccccc21)Nc1ccc(Cl)cc1	24.4
CN(C)c1nc(Nc2ccccc2)nc(N(C)C)n1	8.3
Cc1ccc(C)c(S(=O)(=O)N2CCCOC2CNC(=O)C(=O)NCc2cccs2)c1 (centres unmarked)	-6.85
Cc1cc2c(c(=O)n1Cc1ccco1)C(c1cccnc1)C(C#N)=C(N)O2 (centres unmarked)	-4.79
Cn1c(=O)c(C(=O)NCc2ccc(Cl)cc2)c(O)c2ccccc21	13.4
Cc1ccc(S(=O)(=O)N2CCCCC2)cc1NC(=O)c1ccc2c(c1)OCO2	6.09
